The list shows a part of the results.

In this assay the test system is PfSIP2 AP2 domain 1 (GST-tagged). The experiment in a line: gcPBM binding intensity (ln(normalized median fluorescence intensity)); higher = stronger DNA binding. In a few lines:
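In this array assay, P. falciparum DNA-binding domains with a GST tag, expressed in E. coli, were applied for 1 h to primer-extended double-stranded 36-bp intergenic genomic probes and negative controls on an Agilent 4 × 180k array. Bound protein was visualised with Alexa488 anti-GST antibody at 488 nm. Binding intensity is the highest Masliner-normalised natural-log median intensity across replicate spots of either probe orientation.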
In the case of “GTATTAATTTTAAGGTGTACGCAAAAAATTTAATTT [XGTACX_site718]”, the “gcPBM binding intensity (ln)” value was 7.53.
As to “TTTTTTTTTTTTTTTTTTTTTTTTTCATATTAATAT [GTGCAC_negctrl_site351]”, the “gcPBM binding intensity (ln)” value amounted to 6.93.
For “ATTGATACATCCAATACACACTACATATTATGATGT [CACACA_site6965]”, the “gcPBM binding intensity (ln)” value turned out to be 6.99.
Then “TTGGCATACAGACACACACACACACCCCCACATATA [CACACA_site590]”, with 7.59; and “AATTTATTAAAAAAATGTACTTATTTTTTTGTATAA [XGTACX_site5844]”, with 7; and “ACATATTGTAGATATTGTACATATTGTGTATATATT [XGTACX_site7620]”, with 7.
With “AATATGGAATGAAATAACAATCGGGAGTATATTACC [CACACA_negctrl_site93]”, the “gcPBM binding intensity (ln)” value is 7.22.
Then “TATATATATGTTCTTACACACACGAATATATATATG [CACACA_site3304]”, with 7.41; and “CTTTCTCTCAAAATGACATGCAATTTGTTTCTTTTT [TGCATGCA_site169]”, with 6.81.
With “ATGCGTTTAGCAAAAAGTACATATATATATAATATT [XGTACX_site1928]”, the “gcPBM binding intensity (ln)” value is 6.93.
Then “ATATATATATATATTTGTACTTAATTGATTTTACTT [XGTACX_site2663]”, with 9.27; and “ATTATTGATTTATAAACACACACTCGAAGATGTTTA [CACACA_site8294]”, with 6.91.
As for “TTGAAATACTTTATTTGTACATATAGCAAAGTGTAT [XGTACX_site8782]”, the figure is 7.08; as for “ATTTTTTCTAGACATGCATGTGAAATTTACTTTTTT [TGCATGCA_site305]”, 6.9.
In the case of “ATTTTTTTTTAATGCAATATATTTTGAAAATTTTAT [CACACA_negctrl_site753]”, the “gcPBM binding intensity (ln)” value was found to be 7.
“TTTTTTTTTTTTTTTACACACTTTATTCAAACAACT [CACACA_site4104]”: the “gcPBM binding intensity (ln)” value was determined as 7.01.
As for “AAAAAAATATATAATAGTACATATATAGGAATATAT [XGTACX_site4591]”, the figure is 6.94; as for “TGAATACAGATATTCACACAAATAGTTTTGATATAT [CACACA_site5527]”, 6.69; as for “TAATATCTTGAGTCATCACACATTGATTAATGAATC [CACACA_site5735]”, 6.73.
As for “AGTGGAAATTTTATTTGTACATAAATATTTACATAC [XGTACX_site633]”, the figure is 7.04; as for “CTTTTTTTTTTTTTTGCACACACATATATAAATATA [CACACA_site3950]”, 7.63.
As for “ATATTTTTTATAAAATGTACTTATTATTAGAATATA [XGTACX_site2460]”, the figure is 6.89; as for “ACATATAAGTTATATACACACAATAATATGTAAATA [CACACA_site6766]”, 7.07; as for “TACAAAATATGGTAATAAAGTAGTTACATGAATTGG [XGTACX_negctrl_site522]”, 6.91.
In the case of “AAATAGTCTTCTCTTGCATGTAACAAATATATATAT [TGCATGCA_site428]”, the “gcPBM binding intensity (ln)” value worked out at 8.35.
Then “TAGTAAGAATTACTGTGTACTAAAATATTAAAAAGT [XGTACX_site2578]”, with 7.12; and “AATAAAAACAAACAAAAAAACAAATAAATAAATAAA [CACACA_negctrl_site483]”, with 6.75.
Then “GTTATAGAAGCATTCACACACACACGGACATACACA [CACACA_site6801]”, with 7.23.
Take “TTTTTTTATAAAAATGAACACACACCGATATATATA [CACACA_site9161]”: the “gcPBM binding intensity (ln)” value came to 7.57.
As for AATATATACATATGTATGCACTTTTTAATTATTTTT, the figure is 7.76.
For the sequence “TATTATAATATATTTGTGCACATAATACCTCCGCTA [GTGCAC_site9570]”, the “gcPBM binding intensity (ln)” value worked out at 9.16.
As for “GTTATAGAAGCATTCACACACACACCGACATACACA [CACACA_site4914]”, the figure is 7.27; as for ATAAATTATATTCAAGTGCATGTAACTTATTATTAT, 7.5.
Then “AATAATTAAATATATTTATAACAGGAAAATATTTAT [XGTACX_negctrl_site175]”, with 7.05; and “ATATATATATAAATATAAATATATATATATATATAT [CACACA_negctrl_site1685]”, with 9.35; and “AAAAAAATCACATAATATACTTTATTTTATTTTGTA [GTGCAC_negctrl_site562]”, with 6.72.
For “ACAAAGAACTATAATACACACAAGAATATATTGGAT [CACACA_site7771]”, the “gcPBM binding intensity (ln)” value is 7.06.
As for “TTATAAGATTTATGTACACACATATACACCCCTCTA [CACACA_site4562]”, the figure is 6.97; as for “TATATATAGAAACACACACACACATATATATATATT [CACACA_site2539]”, 7.22; as for “AATATATTGCACCATTGGACCTGAATAATTCTTCCA [CACACA_negctrl_site1071]”, 10.6.
As for “GTAAGAAACGGACACACACACATATATATATATATA [CACACA_site4593]”, the figure is 9.14; as for “TAAATAATCATAGTTCTACACACCTATATTGCAAAA [CACACA_site8190]”, 6.87; as for “AAAAAAAAAAATTCCAGTACACACAATAATACTAAA [XGTACX_site5930]”, 6.88.
Then “ATATATATAATATGATGTACTATTTTGATAAAAAAT [XGTACX_site3975]”, with 7.62; and “TGTGGCCCTGCGAGGTGGTCATCATGAATACGAAAA [XGTACX_site1526]”, with 6.67; and TCAAAAATTTATATAGTGCAATATATATATAATGTA, with 7.9.
Regarding TTAAAAAATATATGCGTGCACTAATATTTCATATGC, the “gcPBM binding intensity (ln)” value turned out to be 9.93.
Then “TGAATTAACAAATAGACACACATATATATATATATA [CACACA_site3195]”, with 9.38; and “ACCATTTGTACTTACGCACACATAAAATATATATAT [CACACA_site1545]”, with 8.49.
Then “TACTATTTTTATAATACACACATATATTTGTGATAT [CACACA_site1775]”, with 7.01.
As for “TCATACATTTTCCTTGCACACATTTATAATTAATGT [CACACA_site614]”, the figure is 7.49.
Turning to “TTGTAATATATAAAAGTGCATATATGGTTCCATATA [GTGCAC_site9544]”, the “gcPBM binding intensity (ln)” value amounted to 7.89.
In the case of “TAATTTATTGTACGTGCATGCTATTTTTTATTTTTA [TGCATGCA_site1059]”, the “gcPBM binding intensity (ln)” value was determined as 7.08.
Then “ATATGTGAATAAAAATGTACGTGTTCTTTTTTTTTT [XGTACX_site320]”, with 6.88; and “AACAAAAAAACAAACACACACACACCCATATATATA [CACACA_site3652]”, with 7.79; and “TACCTATAAAAGTACACACACACACGGATATAAATA [CACACA_site6569]”, with 7.22.
Take “ACTATAAATATATACACATGCGCACACACAAGTGGG [TGCATGCA_site432]”: the “gcPBM binding intensity (ln)” value is 7.45.
As for “ATTGATCTTTATTGTTGTACATTAAACGTTAATTTT [XGTACX_site1788]”, the figure is 7.13; as for “TATTATATAATTTTAACACACAAGAATATAAACTTT [CACACA_site1363]”, 6.83; as for “TAACAAAATGTAAATAAACACACATATATATATATA [CACACA_site8352]”, 9.42.
Consider “AACATTCTATGTTGCACACAAAGAGAAAAATTTATT [CACACA_site3995]”, for which the “gcPBM binding intensity (ln)” value was determined as 6.99.
As for “TAATTTAAATGATGTAGTACATATAAATATATCTAA [XGTACX_site262]”, the figure is 6.8; as for “TGAAGGAATACAGCTCGTACATGTGTAAAGAGATAA [XGTACX_site500]”, 7.09; as for “AAAAAGAAAAAACTTACACACATATATACCCCCATG [CACACA_site4463]”, 8.04.
As for “AATAAAAAAATTAAAATTAAAAAATTAAAACTTAAA [CACACA_negctrl_site987]”, the figure is 6.56; as for “ATGGAAATTTTATCATGTACATATACCGTTGAATAA [XGTACX_site5420]”, 7.03; as for “TTATGCAAAAATAAATCAATATGTTGATATGTAAAT [GTGCAC_negctrl_site128]”, 7.17.
As for “AACATATACTGTTTATGTACACATTGTTATATTAAT [XGTACX_site4276]”, the figure is 7.05; as for “ATATAATTTAATTTCTGTACATAAGAGAAAAAACAA [XGTACX_site4865]”, 7.21; as for “TACATTTTATGCATTTGTACACAAATAAATAAATAA [XGTACX_site2652]”, 7.24.
With “TTTTTTTTTTTTTATACACACATTAAAATAAAAAAG [CACACA_site3946]”, the “gcPBM binding intensity (ln)” value came out at 7.18.
Then “AAAGAAAAAAAAAAAACACACAAAAAAAATCAAAAT [CACACA_site2871]”, with 6.66; and “CTCTTCCTTAATTTTTGTACTTAAAATTTTTTTTTT [XGTACX_site1628]”, with 7.35.
Then “ATATCAATTTTTGGTGGTACGTAGGAAGTTTCAGAA [XGTACX_site6881]”, with 7.4; and “ACTTTAAAAAGATTCACACAAAATATATAAAAATAT [CACACA_site5334]”, with 6.89.
As for “AACCCCAAGCCGTACTGTACATATATTTTTATTTTA [XGTACX_site142]”, the figure is 7.14.
With “AAAAGTTGTATTTGCACACATAAAAAAAAGATATTA [CACACA_site3840]”, the “gcPBM binding intensity (ln)” value was 7.08.
Then “AAATTCAAACAAATTACACACATTTTTTTTTAATTT [CACACA_site3596]”, with 7.1; and “TCAAAGGAATTTTTATGTACATATAAACTTTATTCT [XGTACX_site3432]”, with 6.93; and “AAAAAAAAAAAAAAATGTACATATATATTTATATAT [XGTACX_site229]”, with 7.19.
As for “TAAAATCAATGTTCTTGTACTTAAAATGTTTGTTCT [XGTACX_site5490]”, the figure is 6.96; as for “TATTATTCTACTATTATATTCTATATTATTTATAGT [CACACA_negctrl_site499]”, 6.9; as for “ATATATCTATATAGAAATGTATATATATATATGTGT [TGCATGCA_negctrl_site349]”, 7.32.
Then “AGTATAAAATTTGGTTGTACATTTTTAAAAAAATTA [XGTACX_site7519]”, with 6.81.
As to “AAAATTAAATTATTTACACACAATATTAAAATATTT [CACACA_site3244]”, the “gcPBM binding intensity (ln)” value came to 6.88.
In the case of “TATAATATAAAAAAAAGTACACGAATTTTTTTTCAG [XGTACX_site6105]”, the “gcPBM binding intensity (ln)” value amounted to 7.12.
Turning to “AAATAAATTTGACCAGTGCAATAACTTTGTATACCT [GTGCAC_site9446]”, the “gcPBM binding intensity (ln)” value was found to be 7.64.
As for “ACAATATATTTTTGAGCATGCGCAAAAGAGAATGCA [TGCATGCA_site566]”, the figure is 6.99.
As for “ATCCAAAAGAAAAATAGTACAGATATGAACAATATG [XGTACX_site6944]”, the “gcPBM binding intensity (ln)” value stood at 6.93.

The record behind these values is the supplement of paper PMC11417369.
